# IC50 is the fitted dose that halves viability relative to control wells, and lower means more sensitive; a limit (>, <) means that the fit lies beyond the doses tested. AUC, from the same fit, is the share of area under the viability curve across the 256-fold dose range; values near 1 show little effect. For part of these data: An inferred top dose comes from the curve model; the source does not state it. For part of these data: An entry number marks a drug with two screens in the source, which often give different values.
# What was measured:
# Test in all cases: Viability of human cancer cell lines after 72 h of drug (GDSC screen)
# 5-Fluorouracil = compound: O=c1[nH]cc(F)c(=O)[nH]1 [5-Fluorouracil]; settings: top dose 32 µM; top dose inferred
# Procedure: (§1)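 Human cancer cell lines in 384-well plates, medium with 10% serum, drug for 72 h over a 256-fold dose range (nine 2-fold or five 4-fold steps up to the top dose). Adherent lines were fixed and stained with the nucleic acid dye Syto60, suspension lines read with resazurin; signal relative to control wells, capped at 0 and 100%. One two-parameter sigmoid per drug and line, fitted in a mixed model over all curves with the slope shared within a line.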
# RDEA119 = compound: COc1cc(F)c(F)c(Nc2ccc(I)cc2F)c1NS(=O)(=O)C1(C[C@H](O)CO)CC1 [RDEA119]; settings: top dose 5 µM, top dose inferred
# Procedure: as §1
# OSU-03012 = compound: NCC(=O)Nc1ccc(-n2nc(C(F)(F)F)cc2-c2ccc3c(ccc4ccccc43)c2)cc1 [OSU-03012]; settings: top dose 16 µM; top dose inferred
# Procedure: as §1
# CUDC-101 = compound: C#Cc1cccc(Nc2ncnc3cc(OC)c(OCCCCCCC(=O)NO)cc23)c1 [CUDC-101]; settings: top dose 5.12 µM; top dose inferred
# Procedure: as §1
# QS11 = compound: OC[C@H](Cc1ccccc1)Nc1nc(Oc2ccc3c(c2)CCC3)nc2c1ncn2Cc1ccc(-c2ccccc2)cc1 [QS11]; settings: top dose 10.24 µM
# Procedure: as §1
# JNK-9L = compound: Fc1cc(-c2ccnc(Nc3ccc(-n4cnc(N5CCOCC5)n4)cc3)n2)cc(N2CCOCC2)c1 [JNK-9L]; settings: top dose 5.12 µM; top dose inferred
# Procedure: as §1
# AC220 = compound: CC(C)(C)c1cc(NC(=O)Nc2ccc(-c3cn4c(n3)sc3cc(OCCN5CCOCC5)ccc34)cc2)no1 [AC220]; settings: top dose 1.024 µM; top dose inferred
# Procedure: as §1
Cell Line,AUC (5-Fluorouracil),IC50 (5-Fluorouracil),AUC (RDEA119; screen: GDSC drug entry 1014),IC50 (RDEA119; screen: GDSC drug entry 1014),AUC (RDEA119; screen: GDSC drug entry 1526),IC50 (RDEA119; screen: GDSC drug entry 1526),AUC (OSU-03012),IC50 (OSU-03012),AUC (CUDC-101),IC50 (CUDC-101),AUC (QS11),IC50 (QS11),AUC (JNK-9L),IC50 (JNK-9L),AUC (AC220),IC50 (AC220)
"OAW-42 (ovary, adherent)",0.954,> 32 µM,0.851,4.34 µM,0.812,2.95 µM,0.802,8.66 µM,0.745,1.73 µM,0.95,> 10.2 µM,0.644,0.829 µM,0.984,> 1.02 µM
"OCI-LY-19 (B-cell lymphoma, suspension)",0.569,3.05 µM,0.852,3.41 µM,0.92,> 5 µM,0.683,3.1 µM,0.2,0.0452 µM,0.768,3.56 µM,0.5,0.32 µM,0.981,> 1.02 µM
"OCI-M1 (acute myeloid leukaemia, suspension)",0.764,9.13 µM,0.903,3.79 µM,0.945,> 5 µM,0.819,6.48 µM,0.346,0.134 µM,0.907,8.05 µM,0.737,1.24 µM,0.951,> 1.02 µM
"OCUB-M (breast, adherent)",0.871,23.4 µM,0.99,> 5 µM,0.973,> 5 µM,0.697,3.27 µM,0.353,0.133 µM,0.802,4.27 µM,0.731,1.31 µM,0.96,> 1.02 µM
"OCUM-1 (stomach, adherent)",0.934,> 32 µM,0.265,0.0612 µM,–,–,0.873,> 16 µM,0.967,> 5.12 µM,0.975,> 10.2 µM,0.606,0.647 µM,0.987,> 1.02 µM
"OE19 (oesophagus, adherent)",0.959,> 32 µM,0.862,> 5 µM,0.927,> 5 µM,0.796,8.64 µM,0.81,3.15 µM,0.89,> 10.2 µM,0.612,0.681 µM,0.982,> 1.02 µM
"OE21 (oesophagus, adherent)",0.919,> 32 µM,0.711,1.56 µM,0.775,2.78 µM,0.687,4.12 µM,0.67,1.15 µM,0.85,> 10.2 µM,0.515,0.357 µM,0.973,> 1.02 µM
"OMC-1 (cervix, adherent)",0.96,> 32 µM,0.844,3.81 µM,0.904,> 5 µM,0.714,4.15 µM,0.529,0.385 µM,0.962,> 10.2 µM,0.744,1.67 µM,0.983,> 1.02 µM
"OPM-2 (myeloma, suspension)",0.792,11.6 µM,0.982,> 5 µM,0.992,> 5 µM,0.868,10.3 µM,0.467,0.264 µM,0.963,> 10.2 µM,0.581,–,0.992,> 1.02 µM
"OS-RC-2 (kidney, adherent)",0.926,> 32 µM,0.866,> 5 µM,0.853,> 5 µM,0.733,6.36 µM,0.84,> 5.12 µM,0.879,> 10.2 µM,0.479,0.274 µM,0.977,> 1.02 µM
"OSC-19 (head and neck, adherent)",0.965,> 32 µM,0.736,1.52 µM,0.86,4.49 µM,0.704,3.87 µM,0.455,0.24 µM,0.983,> 10.2 µM,0.534,0.398 µM,0.985,> 1.02 µM
"OSC-20 (head and neck, adherent)",0.877,> 32 µM,0.874,> 5 µM,0.88,> 5 µM,0.559,1.49 µM,0.559,0.479 µM,0.796,5.86 µM,0.545,0.436 µM,0.98,> 1.02 µM
"OV-90 (ovary, adherent)",0.932,> 32 µM,0.377,0.13 µM,0.469,0.251 µM,0.69,4.01 µM,0.691,1.29 µM,0.912,> 10.2 µM,0.708,1.47 µM,0.928,> 1.02 µM
"OVISE (ovary, adherent)",0.826,28.7 µM,0.739,1.92 µM,0.885,> 5 µM,0.86,> 16 µM,0.55,0.458 µM,0.97,> 10.2 µM,0.683,1.24 µM,0.98,> 1.02 µM
"OVKATE (ovary, adherent)",0.976,> 32 µM,0.933,> 5 µM,–,–,0.84,> 16 µM,0.493,0.301 µM,0.979,> 10.2 µM,0.828,> 5.12 µM,0.937,> 1.02 µM
"OVMIU (ovary, adherent)",0.658,6.17 µM,0.76,2.17 µM,0.763,2.23 µM,0.859,> 16 µM,0.529,0.391 µM,0.894,> 10.2 µM,0.542,0.428 µM,0.972,> 1.02 µM
"OVTOKO (ovary, adherent)",0.888,> 32 µM,0.794,3.04 µM,0.775,2.54 µM,0.835,14.8 µM,0.712,1.52 µM,0.977,> 10.2 µM,0.446,0.219 µM,0.972,> 1.02 µM

# — the supplement of paper PMC4967469
